# Reference: ChEMBL document CHEMBL4888484, “Replenishing the malaria drug discovery pipeline: Screening and hit evaluation of the MMV Hit Generation Library 1 (HGL1) against asexual blood stage Plasmodium falciparum ,using a nano luciferase reporter read-out” (2022)
# About 540 (0.36%) of roughly 150,000 compounds showed an effect of 50% or more. The list shows a part of the results.
# Tested on: Plasmodium falciparum
# Assay: Primary screen in NF54 nanoGlo assay, in single point, at 2uM, 72h; a lower Z score goes with more inhibition
# Format: functional, Erythrocyte
# Details: timepoint 72 hour
Structure (SMILES),% Inhibition [%],Z score
Cc1csc(C(=O)NC2CCC2O)c1 (stereo not drawn),-16,2.07
O=C(Nc1cc(C2CC2)n[nH]1)C1CC1c1ccccc1 (stereo not drawn),-6,0.9
c1ccc2c(c1)N(Cc1ccno1)CCCN2Cc1ccno1,-6,1.01
CC(=O)NCCC(=O)Nc1ccc(OC[C@H]2CCCCO2)cc1,-6,1.02
COc1cccn2ncc(C(=O)N[C@@]3(CCO)CCOC3)c12,-13,2.67
CCN1CCC[C@@H]1CNC(=O)c1ccc(-c2ccc(OC)cc2OC)cc1,-14,2.72
O=C(C[C@@H]1COC2(C1)CN(C(=O)CCCc1ccccc1)C2)NCc1ccncc1,0,-0.04
Cc1cc(CN2C(=O)c3ccccc3C2=O)cc(N2CCC(C)CC2)c1,-15,1.95
CC(=O)c1ccc(NC(=O)[C@H](C)Nc2ccc3c(c2)CCC3)cc1,-8,0.75
CCOc1ccccc1NC(=O)c1c(NCc2ccc(N(C)C)cc2)sc2c1CCC2,-10,1.62
COc1cc2c(cc1OC)[C@@H](NC(=O)c1c(C)noc1C)CC2,7,-1.07
COc1ccc(-n2cc(-c3cccc(OC)c3)nc2NC(=O)CN(C(=O)c2ccc3c(c2)OCO3)C(C)C)cc1,-5,0.53
CC(=O)N(C)c1cccc(NC(=O)N2CCC(N3CCCC3)CC2)c1,-11,1.8
CCNC(=O)N1CC[C@H](Oc2cc(N3CCCC3)ncn2)C1,-18,2.29
CCN(Cc1ccccn1)Cc1[nH]nc(C)c1Cl,3,-0.5
O=C(NC1CCS(=O)(=O)C1)N1CCCC1c1ccncc1 (stereo not drawn),-6,1.27
C=CCN(C(=O)c1ccc(Cl)c(C)c1)C(C)C,8,-0.73
Cc1ccc(N2CCN(C(=O)c3nnn4cc(C)[nH]c(=O)c34)CC2)cc1,-14,1.56
COc1ccc(O)c(-c2ccc3c(c2)OC[C@@H](N2CCCC2)[C@@H]3O)c1,-13,1.24
Cc1cc(C(=O)N2Cc3[nH]c4ccccc4c3C[C@H]2C(=O)O)c(C)o1,-15,1.41
COc1ccc(Cl)cc1N1C(=O)[C@@H]2C[C@H]1CN2C(=O)Cc1ccc(F)cc1,-9,1.49

Structure (SMILES),% Inhibition [%],Z score
Cc1csc(-c2cc(S(=O)(=O)NC3CCC(C)CC3)c(C)n2C)n1 (stereo not drawn),-6,0.92
CCCN1CCCCC1C(=O)NCC(C)(O)c1ccsc1 (stereo not drawn),-15,2.79
COc1ccccc1CN1CCC(CN(Cc2cnc(N(C)C)s2)CC(C)C)CC1,-7,1.01
FC(F)c1ccc(-c2noc(-c3ccnc(C4CC4)c3)n2)cn1,-10,0.98
Cc1ccccc1N(C(=O)CCCn1ccnc1C)C(C)C,-9,1.35
COCCN(CCOC)C(=O)c1ccc(Cl)o1,0,0.01
COc1ccc(CCC2=NCCn3cccc32)cc1,-14,2.2
COc1cc(NC(=O)N2CCC[C@H](C)CC2)ncn1,-7,0.88
O=C(NCc1cccnc1)C1=Cc2cc(-c3ccccc3)ccc2OC1,-11,1.13
C[C@@H](CS(=O)(=O)c1ccc2ccccc2c1)N1CCC2(CC1)OCCO2,33,-3.75
CC(C)C[C@]1(CO)CCCN1C(=O)Nc1ccc(OC(F)F)nc1,-1,0.21
O=C(CCc1ccccc1)Nc1ccc(C(=O)N2CCCCC2)cc1,3,-0.46
CCOCC(=O)Nc1ccc(C)c(O)c1,-32,3.76
CC(C)(C)Cc1csc(NC(=O)c2coc(C3CCOCC3)n2)n1,-6,1.06
Cc1cc(C)n(CCC(=O)N2CC[C@H](Nc3cccnc3)C2)n1,12,-1.57
O=C(Cc1ccccc1F)N1CC[C@H]2[C@H](CCC(=O)N2CCc2ccccn2)C1,-4,0.74
COc1cc(C(=O)NCC[C@H]2CN(C)CCO2)nc(OC)n1,-23,2.5
CCOC[C@H]1CCCN1Cc1[nH]cc(C)c(=O)c1C,-4,0.68
COc1cc(CNC2CCCCC2)cc(Br)c1OCc1ccccc1Cl,35,-0.59
CCn1nc(Cc2c(Cl)cccc2Cl)nc1CCN1CCCC1=O,-1,0.12
O=C1CC[C@@]2(CCCO2)CCN1CCCc1ccccc1,-9,1.85

Structure (SMILES),% Inhibition [%],Z score
CCCCC(CC)C(=O)N1CCC(C(=O)N[C@@H]2CCCC[C@H]2NC(=O)c2ccccc2)CC1 (stereo partly drawn),3,-0.36
Cc1ccc(CN(Cc2nc(C(=O)NCCc3ccccn3)co2)[C@@H](C)c2ccccc2)c(C)c1,-15,1.44
CC1(C)CO[C@H](c2ccccc2Cl)CN1CC(=O)N1CCNC(=O)C1,-11,1.64
COCC[C@H](NCC#N)c1ccc(Cl)cc1,-8,1.22
CCC(=O)N1CCN(C(=O)c2ccc3nccnc3c2)[C@H]2CS(=O)(=O)C[C@H]21,5,-0.51
CN1CCC(Nc2nc(-c3ccc(Cl)cc3)cc(C(F)F)n2)CC1,-8,0.98
COc1ccc(C(=O)Nc2cccc(C3OC(=O)N(Cc4ccc(C)cc4)C3C(=O)NCC(C)C)c2)cc1 (stereo not drawn),-13,1.27
Cc1cnc(CCNC(=O)c2cccn2C)n1C1CCCC1,-7,1.03
Cc1nc([C@H]2CCN(C(=O)c3snnc3C)C2)n[nH]1,-1,0.19
O=C1OCCC1N1CCOC(c2ccc(Cl)cc2)C1 (stereo not drawn),-15,1.88
COC(=O)CC[C@@H]1CN(Cc2cccc(F)c2)CC[C@@H]1N1CCN(c2cccc(C(F)(F)F)c2)CC1,-7,0.77
O=C(Nc1cccc(-n2cnnc2)c1)c1ccc(Cl)cc1F,-18,1.67
Cc1cccc(Oc2nc3ccccc3n3c(=O)n(CC(=O)NCc4ccccc4Cl)nc23)c1C,-14,2.27
Cc1nnc(NCc2ccccc2OCCN2CCOCC2)s1,-6,0.91
CN1CCN(S(=O)(=O)N2CCN(C(=O)COc3ccc(F)cc3)CC2)CC1,-1,0.12
Cc1c(Cl)cc2c(c1Cl)CCCN2C(=O)c1csnn1,-2,0.3
C=CCCS(=O)(=O)Nc1ccc(O)c(C)c1,-3,0.25
Cc1oc(-c2ccccc2)nc1Cn1nnc(C(=O)Nc2ccc3c(c2)OCCO3)c1N,-7,1.08
CC(C)c1ccc(N2CCN(CC(=O)NCc3ccccn3)C2=O)cc1,-9,1.58
O=C(Nc1ccc(N2CCN(c3ccccc3F)CC2)c(S(=O)(=O)N[C@H]2CCCc3ccccc32)c1)c1cccc2ccccc12,4,-0.6
CCS(=O)(=O)N1CCN(C[C@@H](O)c2cc3ccccc3o2)CC1,-1,0.12

Structure (SMILES),% Inhibition [%],Z score
CC(C)COc1ccc(C(=O)NC2CCC(n3cccn3)CC2)cn1 (stereo not drawn),-13,2.49
O=C(NCc1ccccc1)N1C[C@@H]2OC(=O)N(CCc3ccc(F)cc3)[C@@H]2C1,1,-0.15
Cc1nn(C)c(C)c1CNC[C@H]1CN(C2CC2)CCO1,-16,2.33
O=C(c1c[nH]c2ccccc12)N1CC(C(=O)N2CCCC2)C1,-4,0.49
CN(CC1(C)COC1)C(=O)C(C)(C)Nc1ccccc1,-11,1.92
COCCOc1ccc(-c2cnc3nc(C)[nH]c3c2)cc1,-6,1.01
C[C@H]1COC2(CCC2)CN1C(=O)Cc1cc(Cl)cc(Cl)c1,-18,1.98
Cc1cc([C@H](C)NCc2nnc(C3CC3)n2C)c(C)o1,-15,1.36
NC(=O)C12CC(CN1C(=O)[C@H]1CCCOC1)C2,1,-0.07
Cc1cccc(CN2CCC[C@@]3(CCN(C(=O)CCc4ccco4)C3)C2)c1,-21,2.99
O=C(N[C@H]1CCOc2ccccc21)C1=CCC1,-7,0.66
COc1ccc2c(c1)Oc1cc(C)ccc1N=C2N1CCCN(C(=O)C(C)C)CC1,-2,0.18
O=C(NCc1ccccc1Cl)c1cc2n(n1)CCCO2,-15,2.26
O=C(Nc1ccc2[nH]ccc2c1)c1cc(-c2cccnc2)nc2ccccc12,-8,1.05
N#Cc1cnn(C(=O)c2cc(-c3ccccc3)nc3ccccc23)c1N,-5,0.5
CCOC(=O)Cc1csc(NC(=O)CN2CCC(COCc3ccc(F)cc3)CC2)n1,-10,1.11
CCn1nccc1C(=O)N1CCC(c2nnc(Cn3cccn3)n2C)CC1,10,-0.95
O=S(=O)(Cc1ccco1)[C@H]1CCN(S(=O)(=O)c2ccc3c(c2)CCCC3)C1,-5,0.87
C#Cc1cncc(C(=O)N(C)Cc2cc(C)on2)c1,-9,1.07
c1ccc(-n2ncc3c2CCC[C@@H]3NCc2cccnc2)nc1,-5,0.81
CCOc1ccc2c(c1)-c1c(ssc1=S)C(C)(C)N2C(=O)c1cccnc1,8,-0.93
